# Assay results: the supplement of paper PMC7125110
# ± gives the standard error. This sample is rich in variants without activity.
# B1: glmS ribozyme (parent)
# chain: AUAAAAGCGCCAGAACUACAGAAAUGUAGUUGACGAGGAGGAGGUUUAUCGAAUUUUCGGCGGAUGCCUCCAAA
# Variants of: B1
# Assay: self-cleavage kobs at 2500 uM GlcN6P; higher = faster cleavage; RNA array
# Conditions: with glucosamine-6-phosphate
# Summary of the method: (§1)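 The measurements used barcoded ribozyme variants on sequenced MiSeq chips, transcribed in situ by E. coli RNA polymerase and tracked at 37 °C with a hybridised Cy3 probe. Glucosamine-6-phosphate, 40 μM to 10 mM in HEPES/KCl/Mg(OAc)2 buffer, was flowed in while tiles were imaged over ~14 h. Baseline-normalised signals, also normalised to non-cleaving reference variants, gave per-tile medians that were fit to one- or two-exponential decays for kobs. kcat and KM resulted from weighted Michaelis–Menten fits across concentrations.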
row,Variant,self-cleavage kobs at 2500 uM GlcN6P [s⁻¹]
1,AUAAAAGCGCUAGAACUACAGAAAUGUAGUUGUCGAGGAGGAGGUUUAUCGAAUUUUCAGCGGAUGCCUCCAAA,0.000169 ± 6.1e-05
2,AUAAAAGCGCUAGAACUACAGAAAUGUAGUUGACGUGGAGGAGGUUUAUCGAAUUUUCGUCGGAUGCCUCCAAA,< 1e-05
3,AUAAAAGCGCUAGAACUACAGAAAUGUAGUUGACGUGGAGGAGGUAAAUCGCAUUUUUGGCGGAUGCCUCCAAA,< 1e-05
4,AUAAAAGCGCUACAACUACAGAAAUGUAGUUGACGAGGAGGAGGUUUAUCGAAUUUUCGGCAGAUGCCUCUAAA,< 1e-05
5,AUAAAAGCGCUAGAACUACAGAAAUGUACUUGACGAGGAGGAGUUUUAUCGAAUUUUCGGCGUACGUCUCUAAA,< 1e-05
6,AUAAAAGCGCUAGAACUACAGAAAUGUAGUUAACGAGGAGGAGGUUUAUCGAAUUUUCGGCGCAUGCUUCCAAA,< 1e-05
7,AUAAAAGCGCUAGAACUACAGAAAUGUAGUUGACGAGGACGAGGUUUAUCGAAUUCUCGGCGGAUGCCUCCAAA,< 1e-05
8,AUAAAAGCGCUAGAACUACAGAAAUGUAGUUGACGAGGAGGAUGUUUAUCGAAUUUUCGGCGGAUGCCUGCAAA,< 1e-05
9,AUAAAAGCGCUAGAACUACAGAAAUGUAGUUGACGAGGAGGAGGGUUAUCGAAAUUUCGGCGGAUGCCUCCAAA,0.000119 ± 2.7e-05
10,AUAAAAGCGCUAGAACUACAGAAAUGUAGUUGACGAGGAGGAGGUUUACCGAAUUGUCGGCGGAUGCCUCCAAA,< 1e-05
11,AUAAAAGCGCCCGUACUACAGAAAUGUAGUCGACGAGGAGGAGGUUUAUCGAAUUGUCGGCGGAUGCCUCCAAA,0.0134 ± 0.0063
12,AUAAAAGCGCCCGAACUACAGAAAUGUAGUUGACGGGGAGGUGGAUUAUCUAAUUUUCGGCGGAUGCCUCCAAA,< 1e-05
13,AUAAAAGCGCCCGAACUACAGAAAUGUAGUUGACGAGGAGGAGGUUUAUCGAGUUUUACGCGGAUGCCUCCAAA,< 1e-05
14,AUAAAAGCGCCCGAAAUACAGAAAUGUAGUUGACGAGGAGUAGAUUUAUCGAAUUUUCGGCGGAUGCCUCCAAA,< 1e-05
15,AUAAAAGCGCCCGAAUUACAGAAAUGUAGUUGACGAGGUGGAGGUUUAUCGAAUUUUCGGCGGAUGCCUCCAAA,0.00306 ± 0.00084
16,AUAAAAGCGCCCGAACUACAGAAAUGUAGUUGACGAGGAGAAGGUUUAUCGAAUUUUCGGCGGAUGCCGCCAAA,< 1e-05

row,Variant,self-cleavage kobs at 2500 uM GlcN6P [s⁻¹]
1,AUAAAAGCGCCCGAACUACAGAAAUGUAGCUGACGAGGAGGAGGUUUAUCGAAUUUUCAGCGGAUGCCUCCAAA,< 1e-05
2,AUAAAAGCGCCCGAACUACAGAAAUGUAGUUGACGAGGAGGAGGUUUAUCGAAUUAUGGGCGGAUGCCUCCAAA,0.00043 ± 8.1e-05
3,AUAAAAGCGCCGGGACUACAGAAAUGUAGUUGACGAGGAGGAGGUUUAUCGAAUUUUCGGCUGAUGACUCCAAA,< 1e-05
4,AUAAAAGCGCCGGAGCUACAGAAAUGUAGUUGACGAGGAGGAGGUUUAUCGAAGUUUCGGUGGGUGCCUCCAAA,< 1e-05
5,AUAAAAGCGCCGGAUCUACAGAAAUGUAGUUGACGAUGAGGGGGUUUAUCGAAUAUUCGGCGGAUGCCUCCAAA,< 1e-05
6,AUAAAAGCGCCGGAACUACAGAAAUGUAGUUGACGCGGAGGAGGUUUAUCGAAUUUUCGGCUGAUGCCUCCAAA,< 1e-05
7,AUAAAAGCGCCGGAACUACAGAAAUGUAGUUGACGAGGUGGAGGUUUAUCGAAUUUUUGGCGGAUGCCAGCAAA,< 1e-05
8,AUAAAAGCGCCGGAACUACAGAAAUGUAGUUGACGAGGAGGUGGUUUAUCGAAUUUUCCCCGGCUACCUCCAAA,< 1e-05
9,AUAAAAGCGCCGGAACUACAGAAAUGUAGUUGAGGAGGAGGAGGUUUGUCGAAUUUUCGGCGGAUGCCUCCAAA,< 1e-05
10,AUAAAAGCGCCGGAACUACAGAAAUGUAUUUGACGAGGAGGAGGUUUAUCGAAUUUUAUGCGGAUGACUCCAAA,< 1e-05
11,AUAAAAGCGCCGGAACUACAGAAAUGUAGUUCACGCGGAGGAGGUUUAUCGAAUUUUCGGCGGAUGGCUCCAAA,< 1e-05
12,AUAAAAGCGCCGGAACUACAGAAAUGUAGUUGACCAGCACGAGGUUUAUCGAAUUUUCGGCGGAUGCCUCCAAA,< 1e-05
13,AUAAAAGCGCCGGAACUACAGAAAUGUAGUUGACGAGGAGUAGGUUUAUCGAAUUUUCAGCGGAUGCCUCCAAA,< 1e-05
14,AUAAAAGCGCCGGAACUACAGAAAUGUAGUUGACGAGGAGGAAGUUUAUCGAAUUUUCGUCGGAUGCCUUCAAA,< 1e-05
15,AUAAAAGCGCCGGAACUACAGAAAUGUAGUUGACGAGGAGGAGGUUUAUCGAAUUUUCGGCGAAUGCCUCCAAA,< 1e-05
16,AUAAAAGCGCCGGAACUACAGAAAUGUAGUGGACGAGGAGGAGGUUUAUCGAAUUUUCGGUGGAUGCCUCCAAA,< 1e-05

# Variants of: B1
# Assay: self-cleavage kobs at 10000 uM GlcN6P; higher = faster cleavage; RNA array
# Conditions: with glucosamine-6-phosphate
# Summary of the method: as §1
row,Variant,self-cleavage kobs at 10000 uM GlcN6P [s⁻¹]
1,AUAAAAGCGCUAGAACUACAGAAAUGUAGUUGUCGAGGAGGAGGUUUAUCGAAUUUUCAGCGGAUGCCUCCAAA,0.000262 ± 5.4e-05
2,AUAAAAGCGCUAGAACUACAGAAAUGUAGUUGACGAGGAGGAGGGUUAUCGAAAUUUCGGCGGAUGCCUCCAAA,0.000152 ± 3.4e-05
3,AUAAAAGCGCCGGAACUACAGAAAUGUAGUUGAGGAGGAGGAGGUUUGUCGAAUUUUCGGCGGAUGCCUCCAAA,< 1e-05
4,AUAAAAGCGCCGGAACUACAGAAAUGUAGUUGACGAGGAGGAGGUUUAUCGAAUUUUCGGCGAAUGCCUCCAAA,< 1e-05
5,AUAAAAGCGCCGGAACUACAGAAAUGUAGUGGACGAGGAGGAGGUUUAUCGAAUUUUCGGUGGAUGCCUCCAAA,< 1e-05
